# The supplement of paper PMC8728848
# Some of the results follow.
# B1: MSMEG3662-2a (Mycobacterium smegmatis), A0QYH7_MYCS2 (protein)
# chain: MGDTLTAGQKLERGGSLQSGNGAYTLTLQDDGNLVLYARDKAVWSTGTNGQDVVRAEVQTDGNFVLYTAEKPVWHTDTKGKKEVKLVLQDDRNLVLYAKDGPAWSSKTDTTEPPPPAPEPEKEAEVAPAAAEEAAPAPVAEPAPAEPAPAAPPPAPPAPRTYTVVSGDTLWAIAERFYGDGSKYQQIADASGIANPDLIHPGQVLTIP
# Tests used:
# Experiment in all cases: glycan array binding signal (z-score within array); higher = stronger binding
# Details in all cases: glycan notation: IUPAC condensed, linker removed
# [1] = target: Man(a1-2)Man(a1-3)[Man(a1-2)Man(a1-6)]Man
# Summary of the method: (§1)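 Glycan array data were curated from 3228 arrays in the Consortium for Functional Glycomics database and kept only where the protein sequence was available. Glycan names were converted to IUPAC-condensed notation, and columns mapping to the same glycan were averaged. The binding signal is a within-array Z-score, averaged across arrays of the same protein sequence at different concentrations or buffers and across linkers. Negative Z-scores can be read as non-binding.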
# [2] = target: Man(a1-2)Man(a1-3)[Man(a1-2)Man(a1-6)]Man(a1-6)[Man(a1-2)Man(a1-2)Man(a1-3)]Man
# Summary of the method: as §1
# [3] = target: Man(a1-2)Man(a1-3)[Man(a1-2)Man(a1-6)]Man(a1-6)[Man(a1-2)Man(a1-2)Man(a1-3)]Man(b1-4)GlcNAc(b1-4)GlcNAc
# Summary of the method: as §1
# [4] = target: Man(a1-2)Man(a1-3)[Man(a1-6)]Man(a1-6)[Man(a1-2)Man(a1-3)]Man(b1-4)GlcNAc(b1-4)GlcNAc
# Summary of the method: as §1
# [5] = target: Man(a1-2)Man(a1-6)[Man(a1-3)]Man(a1-6)[Man(a1-2)Man(a1-2)Man(a1-3)]Man
# Summary of the method: as §1
# [6] = target: Man(a1-2)Man(a1-6)[Man(a1-3)]Man(a1-6)[Man(a1-2)Man(a1-2)Man(a1-3)]Man(b1-4)GlcNAc(b1-4)GlcNAc
# Summary of the method: as §1
# Man(a1-3)[Man(a1-6)]Man = target: Man(a1-3)[Man(a1-6)]Man
# Summary of the method: as §1
# [7] = target: Man(a1-3)[Man(a1-6)]Man(a1-6)[Man(a1-2)Man(a1-3)]Man(b1-4)GlcNAc(b1-4)GlcNAc
# Summary of the method: as §1
# [8] = target: Man(a1-3)[Man(a1-6)]Man(a1-6)[Man(a1-3)]Man
# Summary of the method: as §1
# [9] = target: Man(a1-3)[Man(a1-6)]Man(a1-6)[Man(a1-3)]Man(b1-4)GlcNAc(b1-4)GlcNAc
# Summary of the method: as §1
# [10] = target: Man(a1-3)[Man(a1-6)]Man(b1-4)GlcNAc(b1-4)GlcNAc
# Summary of the method: as §1
# [11] = target: Man(a1-3)[Man(a1-6)]Man(b1-4)GlcNAc(b1-4)[Fuc(a1-6)]GlcNAc
# Summary of the method: as §1
# Man(a1-6)Man = target: Man(a1-6)Man
# Summary of the method: as §1
# Man(b1-4)GlcNAc = target: Man(b1-4)GlcNAc
# Summary of the method: as §1
# MurNAc(b1-4)GlcNAc = target: MurNAc(b1-4)GlcNAc
# Summary of the method: as §1
# Neu5Ac(a2-3)Gal = target: Neu5Ac(a2-3)Gal
# Summary of the method: as §1
# [12] = target: Neu5Ac(a2-3)Gal(b1-3)GalNAc
# Summary of the method: as §1
# [13] = target: Neu5Ac(a2-3)Gal(b1-3)GalNAc(b1-3)Gal(a1-4)Gal(b1-4)Glc
# Summary of the method: as §1
# [14] = target: Neu5Ac(a2-3)Gal(b1-3)GalNAc(b1-4)[Neu5Ac(a2-3)]Gal(b1-4)Glc
# Summary of the method: as §1
# [15] = target: Neu5Ac(a2-3)Gal(b1-3)GalNAc(b1-4)[Neu5Ac(a2-8)Neu5Ac(a2-3)]Gal(b1-4)Glc
# Summary of the method: as §1
# [16] = target: Neu5Ac(a2-3)Gal(b1-3)GalNAc6S
# Summary of the method: as §1
# [17] = target: Neu5Ac(a2-3)Gal(b1-3)GlcNAc
# Summary of the method: as §1
# [18] = target: Neu5Ac(a2-3)Gal(b1-3)GlcNAc(b1-2)Man
# Summary of the method: as §1
# [19] = target: Neu5Ac(a2-3)Gal(b1-3)GlcNAc(b1-2)Man(a1-3)[GlcNAc(b1-4)][Neu5Ac(a2-3)Gal(b1-3)GlcNAc(b1-2)Man(a1-6)]Man(b1-4)GlcNAc(b1-4)GlcNAc
# Summary of the method: as §1
# [20] = target: Neu5Ac(a2-3)Gal(b1-3)GlcNAc(b1-2)Man(a1-3)[Neu5Ac(a2-3)Gal(b1-3)GlcNAc(b1-2)Man(a1-6)]Man(b1-4)GlcNAc(b1-4)GlcNAc
# Summary of the method: as §1
# [21] = target: Neu5Ac(a2-3)Gal(b1-3)GlcNAc(b1-3)Gal(b1-3)GlcNAc
# Summary of the method: as §1
# [22] = target: Neu5Ac(a2-3)Gal(b1-3)GlcNAc(b1-3)Gal(b1-4)GlcNAc
# Summary of the method: as §1
# [23] = target: Neu5Ac(a2-3)Gal(b1-3)GlcNAc(b1-3)GalNAc
# Summary of the method: as §1
# [24] = target: Neu5Ac(a2-3)Gal(b1-3)GlcNAc(b1-4)Gal(b1-4)Glc
# Summary of the method: as §1
# [25] = target: Neu5Ac(a2-3)Gal(b1-3)GlcNAc(b1-6)GalNAc
# Summary of the method: as §1
# [26] = target: Neu5Ac(a2-3)Gal(b1-3)GlcNAc6S
# Summary of the method: as §1
# [27] = target: Neu5Ac(a2-3)Gal(b1-3)[Fuc(a1-4)]GlcNAc
# Summary of the method: as §1
# [28] = target: Neu5Ac(a2-3)Gal(b1-3)[Fuc(a1-4)]GlcNAc(b1-3)Gal(b1-3)[Fuc(a1-4)]GlcNAc
# Summary of the method: as §1
# [29] = target: Neu5Ac(a2-3)Gal(b1-3)[Fuc(a1-4)]GlcNAc(b1-3)Gal(b1-4)[Fuc(a1-3)]GlcNAc
# Summary of the method: as §1
# [30] = target: Neu5Ac(a2-3)Gal(b1-3)[GlcNAc(b1-6)]GalNAc
# Summary of the method: as §1
# [31] = target: Neu5Ac(a2-3)Gal(b1-3)[Neu5Ac(a2-6)]GalNAc
# Summary of the method: as §1
# [32] = target: Neu5Ac(a2-3)Gal(b1-3)[Neu5Ac(a2-6)]GlcNAc(b1-3)[Fuc(a1-3)[Gal(b1-4)]GlcNAc(b1-6)]Gal(b1-4)Glc
# Summary of the method: as §1
# [33] = target: Neu5Ac(a2-3)Gal(b1-3)]Neu5Ac(a2-3)Gal(b1-4)]GlcNAc
# Summary of the method: as §1
binder,measurement,setting,value
B1,glycan array binding signal (z-score),[1],-0.056
same,glycan array binding signal (z-score),[2],-0.095
same,glycan array binding signal (z-score),[3],-0.191
same,glycan array binding signal (z-score),[4],-0.177
same,glycan array binding signal (z-score),[5],-0.157
same,glycan array binding signal (z-score),[6],-0.139
same,glycan array binding signal (z-score),Man(a1-3)[Man(a1-6)]Man,0.092
same,glycan array binding signal (z-score),[7],-0.056
same,glycan array binding signal (z-score),[8],-0.103
same,glycan array binding signal (z-score),[9],-0.08
same,glycan array binding signal (z-score),[10],0.046
same,glycan array binding signal (z-score),[11],0.07
same,glycan array binding signal (z-score),Man(a1-6)Man,-0.07
same,glycan array binding signal (z-score),Man(b1-4)GlcNAc,-0.112
same,glycan array binding signal (z-score),MurNAc(b1-4)GlcNAc,1.49
same,glycan array binding signal (z-score),Neu5Ac(a2-3)Gal,-0.124
same,glycan array binding signal (z-score),[12],-0.037
same,glycan array binding signal (z-score),[13],-0.111
same,glycan array binding signal (z-score),[14],-0.145
same,glycan array binding signal (z-score),[15],0.022
same,glycan array binding signal (z-score),[16],-0.114
same,glycan array binding signal (z-score),[17],-0.039
same,glycan array binding signal (z-score),[18],-0.154
same,glycan array binding signal (z-score),[19],-0.074
same,glycan array binding signal (z-score),[20],-0.117
same,glycan array binding signal (z-score),[21],0.13
same,glycan array binding signal (z-score),[22],-0.17
same,glycan array binding signal (z-score),[23],-0.102
same,glycan array binding signal (z-score),[24],-0.138
same,glycan array binding signal (z-score),[25],-0.113
same,glycan array binding signal (z-score),[26],-0.156
same,glycan array binding signal (z-score),[27],-0.131
same,glycan array binding signal (z-score),[28],0.061
same,glycan array binding signal (z-score),[29],-0.05
same,glycan array binding signal (z-score),[30],-0.025
same,glycan array binding signal (z-score),[31],-0.044
same,glycan array binding signal (z-score),[32],-0.141
same,glycan array binding signal (z-score),[33],0.05
